According to patent US11178870B2 (priority 2017, dated 2021):

Experiments:
[1] = test system: Magnaporthe grisea; format: in vivo; conditions: class of control value, Table 7
[2] = test system: Phytophthora infestans; format: in vivo; conditions: class of control value, Table 7
[3] = test system: Colletotrichum orbiculare; conditions: 250 ppm spray, 2.5 ml/pot; investigated 6 to 10 days after inoculation

SMILES	Test A control value (blast on rice) [1]	Test F control value (late blight on tomato) [2]	Test H control value (anthracnose on cucumber) [3]
Cc1cc(F)ccc1-c1c(-n2ncc(C)c2Cl)cc(Br)c(=O)n1C [Compound 514]	H (H shows the control value more than 50%)	L (L shows the control value of 50% or less)	H (H shows the control value more than 50%)
Cc1cnn(-c2cc(Br)c(=O)n(C)c2-c2ccc(F)cc2Cl)c1Cl [Compound 515]	H (H shows the control value more than 50%)	L (L shows the control value of 50% or less)	H (H shows the control value more than 50%)
CCn1c(-c2ccc(F)cc2F)c(-n2cc(C)cn2)ccc1=O [compound 505, 6-(2,4-difluorophenyl)-1-ethyl-5-(4-methyl-1H-pyrazol-1-yl)pyridin-2(1H)-one]	H (H shows the control value more than 50%)	L (L shows the control value of 50% or less)	L (L shows the control value of 50% or less)
